These results are taken from article PMC9911399, “Two distinct binding modes provide the RNA-binding protein RbFox with extraordinary sequence specificity”.

The labels stand for the following.
T1: RBFOX1 RRM RbFoxmut (Fox-RRM*) (Homo sapiens, UniProt Q9NWB1 109-208, R118D;E147R;N151S;E152T)
T1 sequence: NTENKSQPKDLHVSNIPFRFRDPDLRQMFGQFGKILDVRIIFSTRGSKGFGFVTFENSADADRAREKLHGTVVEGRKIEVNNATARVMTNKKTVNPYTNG

B1: AUAUAGC (DNA:RNA)
RNA: GGGAGACCGGAAUUCAGAUUGUCCAUAUAGCUUAAAUCCCGUCGUAGCCACCA
DNA 1: CAATCTGAATTCCGGTCTCCC
DNA 2: TGGTGGCTACGACGGGATT
B2: GGGCUUC (DNA:RNA)
RNA: B1 RNA with A25G, U26G, A27G, U28C, A29U, G30U
DNA 1: CAATCTGAATTCCGGTCTCCC
DNA 2: TGGTGGCTACGACGGGATT
B3: AAUCCAA (DNA:RNA)
RNA: B1 RNA with U26A, A27U, U28C, A29C, G30A, C31A
DNA 1: CAATCTGAATTCCGGTCTCCC
DNA 2: TGGTGGCTACGACGGGATT
B4: GUUUCUA (DNA:RNA)
RNA: B1 RNA with A25G, A27U, A29C, G30U, C31A
DNA 1: CAATCTGAATTCCGGTCTCCC
DNA 2: TGGTGGCTACGACGGGATT
B5: CCUCACA (DNA:RNA)
RNA: B1 RNA with A25C, U26C, A27U, U28C, G30C, C31A
DNA 1: CAATCTGAATTCCGGTCTCCC
DNA 2: TGGTGGCTACGACGGGATT
B6: UCACGGA (DNA:RNA)
RNA: B1 RNA with A25U, U26C, U28C, A29G, C31A
DNA 1: CAATCTGAATTCCGGTCTCCC
DNA 2: TGGTGGCTACGACGGGATT
B7: ACGCCCU (DNA:RNA)
RNA: B1 RNA with U26C, A27G, U28C, A29C, G30C, C31U
DNA 1: CAATCTGAATTCCGGTCTCCC
DNA 2: TGGTGGCTACGACGGGATT
B8: AAGGGAC (DNA:RNA)
RNA: B1 RNA with U26A, A27G, U28G, A29G, G30A
DNA 1: CAATCTGAATTCCGGTCTCCC
DNA 2: TGGTGGCTACGACGGGATT
B9: AGGUAUU (DNA:RNA)
RNA: B1 RNA with U26G, A27G, G30U, C31U
DNA 1: CAATCTGAATTCCGGTCTCCC
DNA 2: TGGTGGCTACGACGGGATT
B10: UACAUGU (DNA:RNA)
RNA: B1 RNA with A25U, U26A, A27C, U28A, A29U, C31U
DNA 1: CAATCTGAATTCCGGTCTCCC
DNA 2: TGGTGGCTACGACGGGATT
B11: CGUAGUG (DNA:RNA)
RNA: GGGAGACCGGAAUUCAGAUUGUCCCGUAGUGUUAAAUCCCGUCGUAGCCACCA
DNA 1: CAATCTGAATTCCGGTCTCCC
DNA 2: TGGTGGCTACGACGGGATT
B12: GGACGUG (DNA:RNA)
RNA: B11 RNA with C25G, U27A, A28C
DNA 1: CAATCTGAATTCCGGTCTCCC
DNA 2: TGGTGGCTACGACGGGATT
B13: CAUCCCC (DNA:RNA)
RNA: B11 RNA with G26A, A28C, G29C, U30C, G31C
DNA 1: CAATCTGAATTCCGGTCTCCC
DNA 2: TGGTGGCTACGACGGGATT
B14: GUUGACU (DNA:RNA)
RNA: B1 RNA with A25G, A27U, U28G, G30C, C31U
DNA 1: CAATCTGAATTCCGGTCTCCC
DNA 2: TGGTGGCTACGACGGGATT
B15: CUUCAUA (DNA:RNA)
RNA: B11 RNA with G26U, A28C, G29A, G31A
DNA 1: CAATCTGAATTCCGGTCTCCC
DNA 2: TGGTGGCTACGACGGGATT
B16: GGGCUCA (DNA:RNA)
RNA: B11 RNA with C25G, U27G, A28C, G29U, U30C, G31A
DNA 1: CAATCTGAATTCCGGTCTCCC
DNA 2: TGGTGGCTACGACGGGATT
B17: UGCCUGC (DNA:RNA)
RNA: B1 RNA with A25U, U26G, A27C, U28C, A29U
DNA 1: CAATCTGAATTCCGGTCTCCC
DNA 2: TGGTGGCTACGACGGGATT
B18: AGCAGCA (DNA:RNA)
RNA: B11 RNA with C25A, U27C, U30C, G31A
DNA 1: CAATCTGAATTCCGGTCTCCC
DNA 2: TGGTGGCTACGACGGGATT
B19: AUGAUAU (DNA:RNA)
RNA: B1 RNA with A27G, U28A, A29U, G30A, C31U
DNA 1: CAATCTGAATTCCGGTCTCCC
DNA 2: TGGTGGCTACGACGGGATT
B20: UUCCAAG (DNA:RNA)
RNA: B1 RNA with A25U, A27C, U28C, G30A, C31G
DNA 1: CAATCTGAATTCCGGTCTCCC
DNA 2: TGGTGGCTACGACGGGATT
B21: AGGUCUU (DNA:RNA)
RNA: B1 RNA with U26G, A27G, A29C, G30U, C31U
DNA 1: CAATCTGAATTCCGGTCTCCC
DNA 2: TGGTGGCTACGACGGGATT
B22: UUGGUUC (DNA:RNA)
RNA: B1 RNA with A25U, A27G, U28G, A29U, G30U
DNA 1: CAATCTGAATTCCGGTCTCCC
DNA 2: TGGTGGCTACGACGGGATT
B23: CCCCCCG (DNA:RNA)
RNA: B11 RNA with G26C, U27C, A28C, G29C, U30C
DNA 1: CAATCTGAATTCCGGTCTCCC
DNA 2: TGGTGGCTACGACGGGATT
B24: CUGUCAA (DNA:RNA)
RNA: B1 RNA with A25C, A27G, A29C, G30A, C31A
DNA 1: CAATCTGAATTCCGGTCTCCC
DNA 2: TGGTGGCTACGACGGGATT
B25: CAACGCC (DNA:RNA)
RNA: B1 RNA with A25C, U26A, U28C, A29G, G30C
DNA 1: CAATCTGAATTCCGGTCTCCC
DNA 2: TGGTGGCTACGACGGGATT
B26: CGAUAGG (DNA:RNA)
RNA: B1 RNA with A25C, U26G, C31G
DNA 1: CAATCTGAATTCCGGTCTCCC
DNA 2: TGGTGGCTACGACGGGATT
B27: GCCUCUG (DNA:RNA)
RNA: B11 RNA with C25G, G26C, U27C, A28U, G29C
DNA 1: CAATCTGAATTCCGGTCTCCC
DNA 2: TGGTGGCTACGACGGGATT
B28: AUAUUUU (DNA:RNA)
RNA: B1 RNA with A29U, G30U, C31U
DNA 1: CAATCTGAATTCCGGTCTCCC
DNA 2: TGGTGGCTACGACGGGATT
B29: UAGUUUU (DNA:RNA)
RNA: B1 RNA with A25U, U26A, A27G, A29U, G30U, C31U
DNA 1: CAATCTGAATTCCGGTCTCCC
DNA 2: TGGTGGCTACGACGGGATT
B30: AGCCGAC (DNA:RNA)
RNA: B1 RNA with U26G, A27C, U28C, A29G, G30A
DNA 1: CAATCTGAATTCCGGTCTCCC
DNA 2: TGGTGGCTACGACGGGATT
B31: AGAGCCC (DNA:RNA)
RNA: B1 RNA with U26G, U28G, A29C, G30C
DNA 1: CAATCTGAATTCCGGTCTCCC
DNA 2: TGGTGGCTACGACGGGATT

Substitutions are numbered along the chain they refer to; changes in the protein carry UniProt numbers. The list shows a part of the results.

The assay addresses T1, RBFOX1 RRM RbFoxmut (Fox-RRM*). Put plainly: EMSA; HiTS-Eq, 1 nM pool, 10 min; buffer printed only for the single-RNA assays: 10 mM Tris pH 7.5, 150 mM NaCl, 3.4 mM EDTA, 0.001% NP-40, 30 C. The following applies: tags: His6 N-terminal (pET28a); label: 5' 32P. The gist of the method: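 Purified RbFox RRM, wild type or mutant, was incubated for 10 min in 50 µL with 1 nM of a 5′-radiolabelled RNA pool carrying 7 randomized nucleotides, whose flanks were annealed to DNA oligonucleotides, over a series of increasing protein concentrations. Unbound RNA was resolved on 8% native PAGE, cut out, reverse-transcribed, barcoded by PCR and sequenced on an Illumina HiSeq 2500. Relative association constants were derived from changes in read counts for each RNA species versus the control reaction and normalised to the cognate motif.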
(In EMSA bound probe runs differently from free probe, usually more slowly.)
For the molecule B1, the binding signal is 0.12 KA relative to UGCAUGU.
On to B2, for which the binding signal is 0.128 KA relative to UGCAUGU.
Consider B3, for which the binding signal was 0.049 KA relative to UGCAUGU.
As for B4, the figure is 0.146 KA relative to UGCAUGU.
The figure for B5 is 0.108 KA relative to UGCAUGU; for B6 it is 0.0652 KA relative to UGCAUGU.
For the molecule B7, the binding signal was 0.0755 KA relative to UGCAUGU.
As to B8, the binding signal was 0.0733 KA relative to UGCAUGU.
Take B9: the binding signal was 0.106 KA relative to UGCAUGU.
Turning to B10, the binding signal is 0.0896 KA relative to UGCAUGU.
B11: the binding signal was 0.147 KA relative to UGCAUGU.
On to B12, for which the binding signal is 0.162 KA relative to UGCAUGU.
As for B13, the figure is 0.0968 KA relative to UGCAUGU.
For the molecule B14, the binding signal was 0.07 KA relative to UGCAUGU.
On to B15, for which the binding signal is 0.153 KA relative to UGCAUGU.
Take B16: the binding signal was 0.113 KA relative to UGCAUGU.
On to B17, for which the binding signal is 0.153 KA relative to UGCAUGU.
As for B18, the figure is 0.14 KA relative to UGCAUGU.
The figure for B19 is 0.126 KA relative to UGCAUGU; for B20 it is 0.0952 KA relative to UGCAUGU.
On to B21, for which the binding signal was 0.0679 KA relative to UGCAUGU.
For the molecule B22, the binding signal is 0.21 KA relative to UGCAUGU.
With B23, the binding signal was 0.104 KA relative to UGCAUGU.
With B24, the binding signal was 0.0918 KA relative to UGCAUGU.
On to B25, for which the binding signal was 0.117 KA relative to UGCAUGU.
Regarding B26, the binding signal is 0.0747 KA relative to UGCAUGU.
As to B27, the binding signal was 0.0649 KA relative to UGCAUGU.
Regarding B28, the binding signal is 0.122 KA relative to UGCAUGU.
As for B29, the figure is 0.119 KA relative to UGCAUGU; as for B30, 0.09 KA relative to UGCAUGU.
With B31, the binding signal is 0.0642 KA relative to UGCAUGU.
